# This is one part of the list.
# B1: Tectonin 2 (Laccaria bicolor) (protein)
# chain: MPWKGISGSLSRISAGSVTNVWGVNAANNIYRYTGDDAKPWVQIPGALTDIGAAADGTVWGVNAAGNIYRYVWDSNHWTQIKGALKRISAGSRTNVWGVNAGGAIYRYTGDDANPWVQIPGVLSDIGAGADGTVWGVNAAGEIYRYTGDQGDPNHWVKIPGALSAISAGIKTNVWGVNSANNIYTSTGDDKNPWLGIGGSLVDIGAGTDGVVWGVNAGGGIYRWIRD
# Legend:
# Test in all cases: glycan array binding signal (z-score within array); higher = stronger binding
# Conditions in all cases: glycan notation: IUPAC condensed, linker removed
# [1] = biological target: Gal(b1-3)GlcNAc(b1-3)Gal(b1-4)[Fuc(a1-3)]GlcNAc(b1-6)[Gal(b1-3)GlcNAc(b1-3)]Gal(b1-4)Glc
# How it was run: (§1)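 The binding signal is a Z-score computed within each array and averaged over linkers. Arrays of the same protein sequence at different concentrations or buffers were also averaged together. Data originate from 3228 arrays in the Consortium for Functional Glycomics database, kept only where the protein sequence was available.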
# [2] = biological target: Gal(b1-3)GlcNAc(b1-3)GalNAc
# How it was run: as §1
# [3] = biological target: Gal(b1-3)GlcNAc(b1-6)Gal(b1-4)GlcNAc
# How it was run: as §1
# [4] = biological target: Gal(b1-3)[Fuc(a1-4)]GlcNAc
# How it was run: as §1
# [5] = biological target: Gal(b1-3)[Fuc(a1-4)]GlcNAc(b1-2)Man(a1-3)[Gal(b1-3)[Fuc(a1-4)]GlcNAc(b1-2)Man(a1-6)]Man(b1-4)GlcNAc(b1-4)GlcNAc
# How it was run: as §1
# [6] = biological target: Gal(b1-3)[Fuc(a1-4)]GlcNAc(b1-2)Man(a1-3)[Gal(b1-3)[Fuc(a1-4)]GlcNAc(b1-2)Man(a1-6)]Man(b1-4)GlcNAc(b1-4)[Fuc(a1-6)]GlcNAc
# How it was run: as §1
# [7] = biological target: Gal(b1-3)[Fuc(a1-4)]GlcNAc(b1-3)Gal(b1-3)[Fuc(a1-4)]GlcNAc
# How it was run: as §1
# [8] = biological target: Gal(b1-3)[Fuc(a1-4)]GlcNAc(b1-3)Gal(b1-4)GlcNAc
# How it was run: as §1
# [9] = biological target: Gal(b1-3)[Fuc(a1-4)]GlcNAc(b1-3)Gal(b1-4)[Fuc(a1-3)]GlcNAc
# How it was run: as §1
# [10] = biological target: Gal(b1-3)[GlcNAc(b1-6)]GalNAc
# How it was run: as §1
# [11] = biological target: Gal(b1-3)[Neu5Ac(a2-6)]GalNAc
# How it was run: as §1
# [12] = biological target: Gal(b1-3)[Neu5Ac(a2-6)]GlcNAc(b1-6)Gal(b1-4)Glc
# How it was run: as §1
# [13] = biological target: Gal(b1-3)[Neu5Ac(b2-6)]GalNAc
# How it was run: as §1
# Gal(b1-4)Gal = biological target: Gal(b1-4)Gal
# How it was run: as §1
# [14] = biological target: Gal(b1-4)GalNAc(a1-3)[Fuc(a1-2)]Gal(b1-4)GlcNAc
# How it was run: as §1
# [15] = biological target: Gal(b1-4)GalNAc(b1-3)[Fuc(a1-2)]Gal(b1-4)GlcNAc
# How it was run: as §1
# Gal(b1-4)Glc = biological target: Gal(b1-4)Glc
# How it was run: as §1
# Gal(b1-4)Glc6S = biological target: Gal(b1-4)Glc6S
# How it was run: as §1
# Gal(b1-4)GlcNAc = biological target: Gal(b1-4)GlcNAc
# How it was run: as §1
# [16] = biological target: Gal(b1-4)GlcNAc(a1-6)Gal(b1-4)GlcNAc
# How it was run: as §1
# [17] = biological target: Gal(b1-4)GlcNAc(b1-2)Man(a1-3)Man(b1-4)GlcNAc(b1-4)GlcNAc
# How it was run: as §1
# [18] = biological target: Gal(b1-4)GlcNAc(b1-2)Man(a1-3)[Gal(b1-4)GlcNAc(b1-2)Man(a1-6)]Man(b1-4)GlcNAc(b1-4)GlcNAc
# How it was run: as §1
# [19] = biological target: Gal(b1-4)GlcNAc(b1-2)Man(a1-3)[Gal(b1-4)GlcNAc(b1-2)Man(a1-6)]Man(b1-4)GlcNAc(b1-4)[Fuc(a1-6)]GlcNAc
# How it was run: as §1
# [20] = biological target: Gal(b1-4)GlcNAc(b1-2)Man(a1-3)[Gal(b1-4)GlcNAc(b1-2)][GlcNAc(b1-4)]Man(b1-4)GlcNAc(b1-4)GlcNAc
# How it was run: as §1
# [21] = biological target: Gal(b1-4)GlcNAc(b1-2)Man(a1-3)[GlcNAc(b1-2)Man(a1-6)]Man(b1-4)GlcNAc(b1-4)GlcNAc
# How it was run: as §1
# [22] = biological target: Gal(b1-4)GlcNAc(b1-2)Man(a1-3)[Man(a1-6)]Man(b1-4)GlcNAc(b1-4)GlcNAc
# How it was run: as §1
# [23] = biological target: Gal(b1-4)GlcNAc(b1-2)Man(a1-6)Man(b1-4)GlcNAc(b1-4)GlcNAc
# How it was run: as §1
# [24] = biological target: Gal(b1-4)GlcNAc(b1-2)Man(a1-6)[GlcNAc(b1-2)Man(a1-3)]Man(b1-4)GlcNAc(b1-4)GlcNAc
# How it was run: as §1
# [25] = biological target: Gal(b1-4)GlcNAc(b1-2)Man(a1-6)[Man(a1-3)]Man(b1-4)GlcNAc(b1-4)GlcNAc
# How it was run: as §1
# [26] = biological target: Gal(b1-4)GlcNAc(b1-2)[Gal(b1-4)GlcNAc(b1-4)]Man(a1-3)[Gal(b1-4)GlcNAc(b1-2)Man(a1-6)]Man(b1-4)GlcNAc(b1-4)GlcNAc
# How it was run: as §1
# [27] = biological target: Gal(b1-4)GlcNAc(b1-2)[Gal(b1-4)GlcNAc(b1-4)]Man(a1-3)[Gal(b1-4)GlcNAc(b1-2)[Gal(b1-4)GlcNAc(b1-6)]Man(a1-6)]Man(b1-4)GlcNAc(b1-4)GlcNAc
# How it was run: as §1
# [28] = biological target: Gal(b1-4)GlcNAc(b1-2)[Gal(b1-4)GlcNAc(b1-4)]Man(a1-3)[GlcNAc(b1-4)][Gal(b1-4)GlcNAc(b1-2)Man(a1-6)]Man(b1-4)GlcNAc(b1-4)GlcNAc
# How it was run: as §1
# [29] = biological target: Gal(b1-4)GlcNAc(b1-2)[Gal(b1-4)GlcNAc(b1-6)]Man(a1-6)[GlcNAc(b1-4)][Gal(b1-4)GlcNAc(b1-2)Man(a1-3)]Man(b1-4)GlcNAc(b1-4)GlcNAc
# How it was run: as §1
# [30] = biological target: Gal(b1-4)GlcNAc(b1-3)Gal(b1-3)GlcNAc
# How it was run: as §1
# [31] = biological target: Gal(b1-4)GlcNAc(b1-3)Gal(b1-4)Glc
# How it was run: as §1
# [32] = biological target: Gal(b1-4)GlcNAc(b1-3)Gal(b1-4)GlcNAc
# How it was run: as §1
# [33] = biological target: Gal(b1-4)GlcNAc(b1-3)Gal(b1-4)GlcNAc(b1-3)Gal(b1-4)GlcNAc
# How it was run: as §1
# [34] = biological target: Gal(b1-4)GlcNAc(b1-3)Gal(b1-4)[Fuc(a1-3)GlcNAc(b1-6)]Gal(b1-4)Glc
# How it was run: as §1
# [35] = biological target: Gal(b1-4)GlcNAc(b1-3)Gal(b1-4)[Fuc(a1-3)]GlcNAc(b1-3)Gal(b1-4)[Fuc(a1-3)]GlcNAc
# How it was run: as §1
# [36] = biological target: Gal(b1-4)GlcNAc(b1-3)GalNAc
# How it was run: as §1
# [37] = biological target: Gal(b1-4)GlcNAc(b1-3)[Gal(b1-4)GlcNAc(b1-6)]Gal(b1-4)GlcNAc
# How it was run: as §1
# [38] = biological target: Gal(b1-4)GlcNAc(b1-3)[Gal(b1-4)GlcNAc(b1-6)]GalNAc
# How it was run: as §1
# [39] = biological target: Gal(b1-4)GlcNAc(b1-3)[GlcNAc(b1-6)]Gal(b1-4)GlcNAc
# How it was run: as §1
# [40] = biological target: Gal(b1-4)GlcNAc(b1-6)Gal(b1-4)GlcNAc
# How it was run: as §1
# [41] = biological target: Gal(b1-4)GlcNAc(b1-6)GalNAc
# How it was run: as §1
binder,measurement,setting,value
B1,glycan array binding signal (z-score),[1],-0.361
same,glycan array binding signal (z-score),[2],-0.237
same,glycan array binding signal (z-score),[3],-0.314
same,glycan array binding signal (z-score),[4],-0.348
same,glycan array binding signal (z-score),[5],0.835
same,glycan array binding signal (z-score),[6],0.239
same,glycan array binding signal (z-score),[7],-0.42
same,glycan array binding signal (z-score),[8],-0.217
same,glycan array binding signal (z-score),[9],-0.39
same,glycan array binding signal (z-score),[10],-0.144
same,glycan array binding signal (z-score),[11],-0.116
same,glycan array binding signal (z-score),[12],-0.414
same,glycan array binding signal (z-score),[13],-0.312
same,glycan array binding signal (z-score),Gal(b1-4)Gal,-0.475
same,glycan array binding signal (z-score),[14],-0.003
same,glycan array binding signal (z-score),[15],-0.107
same,glycan array binding signal (z-score),Gal(b1-4)Glc,-0.333
same,glycan array binding signal (z-score),Gal(b1-4)Glc6S,-0.111
same,glycan array binding signal (z-score),Gal(b1-4)GlcNAc,-0.381
same,glycan array binding signal (z-score),[16],-0.389
same,glycan array binding signal (z-score),[17],-0.226
same,glycan array binding signal (z-score),[18],-0.261
same,glycan array binding signal (z-score),[19],0.314
same,glycan array binding signal (z-score),[20],-0.425
same,glycan array binding signal (z-score),[21],-0.362
same,glycan array binding signal (z-score),[22],-0.092
same,glycan array binding signal (z-score),[23],0.217
same,glycan array binding signal (z-score),[24],-0.451
same,glycan array binding signal (z-score),[25],-0.487
same,glycan array binding signal (z-score),[26],-0.307
same,glycan array binding signal (z-score),[27],-0.038
same,glycan array binding signal (z-score),[28],0.732
same,glycan array binding signal (z-score),[29],-0.38
same,glycan array binding signal (z-score),[30],-0.021
same,glycan array binding signal (z-score),[31],-0.385
same,glycan array binding signal (z-score),[32],-0.248
same,glycan array binding signal (z-score),[33],-0.352
same,glycan array binding signal (z-score),[34],-0.568
same,glycan array binding signal (z-score),[35],-0.118
same,glycan array binding signal (z-score),[36],-0.335
same,glycan array binding signal (z-score),[37],-0.382
same,glycan array binding signal (z-score),[38],-0.151
same,glycan array binding signal (z-score),[39],-0.462
same,glycan array binding signal (z-score),[40],-0.302
same,glycan array binding signal (z-score),[41],-0.307

# — the supplement of paper PMC8728848
